Reference: the supplement of paper PMC3334620
Over roughly 33,000 sequences, “E-score (-0.5 to 0.5)” has its median near -0.035; the highest 2% begin near 0.35. The list shows a part of the results.

molecular target: T1, Pdr3 (UniProt P33200); assay: PBM E-score (8-mer binding enrichment) (E-score (-0.5 to 0.5)); higher = stronger / more preferred TF binding; most listed sequences are background and not binding sites; details: protein concentration: 200 nM; construct: GST-full length
T1 sequence: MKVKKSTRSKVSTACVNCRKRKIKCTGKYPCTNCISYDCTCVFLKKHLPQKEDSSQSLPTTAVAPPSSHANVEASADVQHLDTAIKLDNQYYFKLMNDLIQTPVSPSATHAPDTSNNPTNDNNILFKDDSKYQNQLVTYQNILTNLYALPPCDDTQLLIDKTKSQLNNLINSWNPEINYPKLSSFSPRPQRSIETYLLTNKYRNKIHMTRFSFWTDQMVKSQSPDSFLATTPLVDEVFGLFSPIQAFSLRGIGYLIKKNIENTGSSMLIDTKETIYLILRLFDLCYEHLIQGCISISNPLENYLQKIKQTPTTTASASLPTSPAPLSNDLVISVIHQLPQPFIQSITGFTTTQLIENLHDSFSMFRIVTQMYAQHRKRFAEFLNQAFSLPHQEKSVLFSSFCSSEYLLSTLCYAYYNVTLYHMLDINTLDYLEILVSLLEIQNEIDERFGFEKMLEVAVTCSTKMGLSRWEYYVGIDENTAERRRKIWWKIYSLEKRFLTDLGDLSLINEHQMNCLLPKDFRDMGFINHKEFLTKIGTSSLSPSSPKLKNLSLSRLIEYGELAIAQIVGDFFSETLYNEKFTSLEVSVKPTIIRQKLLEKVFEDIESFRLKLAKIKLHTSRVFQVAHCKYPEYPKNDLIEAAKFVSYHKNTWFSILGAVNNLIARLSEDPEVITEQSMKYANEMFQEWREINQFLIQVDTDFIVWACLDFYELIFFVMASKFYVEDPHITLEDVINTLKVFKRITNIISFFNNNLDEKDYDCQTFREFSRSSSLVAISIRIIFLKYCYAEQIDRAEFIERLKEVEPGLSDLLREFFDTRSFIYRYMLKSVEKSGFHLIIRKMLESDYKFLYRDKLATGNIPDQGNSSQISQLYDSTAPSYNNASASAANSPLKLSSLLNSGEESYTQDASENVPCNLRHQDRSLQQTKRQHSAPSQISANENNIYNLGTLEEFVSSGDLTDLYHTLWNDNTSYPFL
Summary of the method: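 E-scores (a modified Wilcoxon-Mann-Whitney statistic) were assigned by the Universal PBM Analysis Suite to every ungapped eight-base word pooled with its reverse complement. The input came from universal all-10-mer Agilent arrays made double-stranded by primer extension and probed with GST-tagged yeast transcription factors at about 100-200 nM. Fluorescent anti-GST detected bound protein, and masliner normalised the scans.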

Sequence | PBM E-score
CTCAGACA | -0.0115
AATCATTG | -0.302
AGCCTGAT | -0.176
GGCGTCGA | 0.178
ATACGCAC | 0.0411
ATCGTCCA | -0.0669
GAGAAGGA | -0.131
CACTATAG | -0.187
GCTACATA | -0.046
CCACGACC | -0.186
AGCTACTC | -0.0578
CACATTAC | 0.0395
AAAATGGG | -0.0238
AGCTCGGC | 0.196
AGCCACTA | -0.168
CGGTCATC | 0.208
GGATTTAC | 0.0693
CCCCACGG | 0.26
GAATCTCA | 0.0058
GAAGGTAA | 0.124
CTCAGATC | 0.11
ACGTGCGG | 0.0591
CTCTTCTA | -0.154
ATATCCTA | -0.0576
GCTCAATA | 0.0389

Sequence | PBM E-score
CCAGATAC | -0.131
CAGAATAA | -0.0298
AGGCCTAG | -0.24
AGTTCAAA | -0.0039
AACCCTAT | -0.112
GCATTATA | -0.112
ATAAATAG | 0.0815
CTGCAGAC | -0.111
GCTCGGCA | 0.228
CTGAGTAC | -0.153
CCGGCATA | 0.269
CGTCTAAA | -0.07
GGTGCGAC | 0.0293
CAATCTAC | -0.126
CGTGGTTC | 0.179
CACCCGTG | 0.232
AATTCCCC | 0.203
CTTTAGAC | -0.327
GTCTATTA | -0.055
ACTGCCCC | 0.0699
AAGTTCGC | -0.118
TCAGTAGA | -0.105
AAGTACAT | -0.0113
GGAATGAA | 0.309
TCCTGTCA | -0.0998

Sequence | PBM E-score
CTAGGAAG | -0.214
CCGTCGTA | 0.12
CCTTAGAG | -0.308
CCTATTCA | 0.0245
AACTCCCC | 0.223
TCTACTCA | -0.0894
CCGTAATC | 0.0525
CACTTGGC | 0.013
TTATAAAA | 0.216
GAACTGTC | 0.0611
ACTCGCAG | -0.135
AGGCGATG | 0.0723
CGAACTCG | 0.17
CCTCAGCA | -0.102
GAGAGGAC | -0.0109
TCTCCACA | -0.258
CACTGCGG | 0.174
CAGAGGCC | -0.177
AACAATGC | -0.0311
AAGACCCT | -0.184
AAGGACCC | 0.0181
GAAAATCC | 0.0302
ACGAGATA | -0.128
GTATGGAC | 0.0423
GCGCACGA | 0.0416

Sequence | PBM E-score
GGATATCA | 0.149
AGGATCCA | -0.0311
AAGCTCAT | -0.00906
CCTCACCC | 0.054
GCTCTCAC | 0.0179
GCAAATCA | -0.0772
ATATCGTC | -0.007
AACCTCTT | 0.0276
AACGCTAC | -0.132
ACGCTGCA | -0.227
CCGAGAAC | 0.282
AGGTCCGG | 0.311
ACAGAACG | -0.104
AAGTCCGC | 0.301
CTCCGCTA | 0.11
GCTACCGA | -0.0841
CGCCTGCC | -0.0358
ACCTTGTA | -0.248
CACGAAAA | 0.0145
GATCCCTA | -0.00857
GTCGGTGA | -0.119
AGGCCTAA | -0.0426
AACTCCCA | 0.0333
ACACCTTG | -0.201
CCCCTGTC | -0.31

Sequence | PBM E-score
CCGTTTTC | 0.202
ATAATATG | 0.162
CGCTATCA | 0.0421
GGATCGAA | 0.133
CAACCGTA | -0.296
AAATAGCG | -0.017
GACGCACC | 0.0145
CAAAACTA | -0.024
AAGCTGCC | -0.0128
AATCCTCA | -0.244
GAATGTAC | 0.033
CCCCATTA | -0.27
ATTTACAC | -0.0644
CCGGCCAG | 0.274
AGATCTTC | 0.0237
GATAGAAC | -0.037
ATTGCTGA | -0.216
ATCCGGAC | 0.355
CTGTAATA | 0.0822
ATAAAAAT | -0.133
CCCGGGGA | 0.414
CTCGAGCC | -0.114
AAGAACGC | -0.00283
ATTGGTTG | -0.0354
ATACTAGC | 0.151

Sequence | PBM E-score
GATGACTA | -0.0876
CAATGTAC | -0.259
GGATCAAC | 0.151
GATTTCCC | 0.143
CGGCTAAC | 0.13
ATTAGGAA | 0.102
AACGTTAA | 0.0967
AGCGGACT | -0.0134
CCGCCTAA | -0.0431
GCTGCCGA | 0.117
GTACTCTA | -0.304
ACAACGCT | -0.19
AGTAGGTA | -0.115
CTTTCGCC | -0.057
GAACACTC | 0.19
GATCGAAA | 0.015
GAAGATTC | 0.168
AAGAGTTC | -0.178
GAAAGTTC | 0.088
ATAAGGTA | -0.0443
TCCTTCGA | 0.0546
AGCTTGGA | -0.283
ACAGGTCC | 0.027
AATATCAA | -0.0303
CGGTAGAC | 0.091

Sequence | PBM E-score
AATTGCGA | -0.0345
AACGTCCT | -0.123
AGACAAGA | 0.116
TAACACAA | -0.0485
CGCAGCAG | 0.0447
GTGCCGAA | 0.253
AGGCAGGA | -0.149
AAGAACAG | -0.125
AGTTGTAC | 0.0563
CGAGAGTC | -0.239
CGGCTTAC | 0.131
AAGGAAAT | 0.00091
ATCTGTCC | 0.236
AGGAGGGG | -0.09
GCACATTA | -0.00739
AACTCGCA | -0.209
AAATTGAA | -0.227
CTCACGAA | -0.196
CCTAGCCA | -0.182
ATATGGGA | -0.0119
AAGAGAAC | -0.104
CAAAGAAG | -0.102
